Experimental data: PubChem BioAssay AID2147 (National Center for Advancing Translational Sciences (NCATS), 2009)
The whole screen tested about 230,000 compounds, of which about 3,600 (1.6%) were called active. The inconclusive results got no clear call from the source; some entries with a clear call stand among them for comparison. Calls follow the shape of the dose curve; as a rule, active = well fitted inhibition curve with a large enough effect (not every such curve was filed as active); inconclusive = small, poorly fitted or top-dose-only effect, or another doubt; inactive = no such curve, though single readings can be large or run the other way. A potency beside an inconclusive call is a rough fit, not a confirmed value.
Also: nearly all actives have a fitted effect of over 50% in size.
Potency is read from the fitted curve at half-maximal effect; tags tell the direction and shape of the fitted curve.

Each molecule was assayed against Lysine-specific demethylase 4E (Homo sapiens) (UniProt B2RXH2) (assay: qHTS Assay for Inhibitors of Human Jumonji Domain Containing 2E (JMJD2E)). Settings: JMJD2E catalytic domain, FDH-coupled NADH fluorescence (FDH is formaldehyde dehydrogenase); series mostly up to 57.1 µM.
UniProt B2RXH2, sequence (B2RXH2 whole entry, looked up, the tested form may be a part): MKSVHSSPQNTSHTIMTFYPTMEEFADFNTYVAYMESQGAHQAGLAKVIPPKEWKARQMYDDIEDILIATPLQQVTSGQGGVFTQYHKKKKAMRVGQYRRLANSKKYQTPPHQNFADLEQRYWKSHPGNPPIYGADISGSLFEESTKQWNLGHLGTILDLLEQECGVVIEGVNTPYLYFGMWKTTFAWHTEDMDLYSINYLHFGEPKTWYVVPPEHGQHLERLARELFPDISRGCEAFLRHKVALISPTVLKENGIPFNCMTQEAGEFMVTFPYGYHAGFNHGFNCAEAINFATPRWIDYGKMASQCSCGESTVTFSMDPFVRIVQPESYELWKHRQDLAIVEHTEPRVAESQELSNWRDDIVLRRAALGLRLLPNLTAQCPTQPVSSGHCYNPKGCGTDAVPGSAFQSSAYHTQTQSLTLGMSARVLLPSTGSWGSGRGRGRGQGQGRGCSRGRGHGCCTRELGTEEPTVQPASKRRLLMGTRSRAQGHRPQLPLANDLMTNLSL
With `CC(C)(C)Nc1oc(-c2ccccc2)nc1-c1ccccc1` the Potency was “inactive”.
`Cc1nc2cc(-c3ccccc3)sc2c(=O)n1N` was tested, and the Potency was inconclusive: 35.5 µM [inhibitor, single point].
With `Cc1cc(C)n(-c2nc(NCCCN(C)C)c3c4c(sc3n2)COC(C)(C)C4)n1` the Potency was inconclusive: 22.4 µM [inhibitor, partial curve].
In the case of `COc1ccc(/C=C/C(=O)Nc2sc(Cc3ccccc3)c(C)c2C(N)=O)cc1`, the Potency is reported as inconclusive: 28.2 µM [inhibitor, partial curve].
For `CCn1c(C)cc(/C=C2/NC(=O)N(Cc3ccccc3F)C2=O)c1C`, the Potency was inconclusive: 22.4 µM [inhibitor, single point].
With `Cc1cccn2c(=O)c(/C=C(\C#N)C(=O)NCc3ccco3)c(N3CCCCCC3)nc12` the Potency was “inactive”.
With `CC1(C)CC(CCC(=O)Nc2ccccc2Cl)C(=O)O1` (configuration not stated) the Potency was inconclusive: 17.8 µM [inhibitor, single point].
In the case of `O=C(Nc1cccc(Cl)c1)c1ccc(F)c(S(=O)(=O)N2CCN(c3ccccn3)CC2)c1`, the Potency is reported as inconclusive: 31.6 µM [inhibitor, single point].
With `O=[N+]([O-])c1cc(S(=O)(=O)NCCCN2CCOCC2)ccc1Cl` the Potency was inconclusive: 39.8 µM [inhibitor, single point].
`Cc1ccc(-c2ccc(/C=C/C(=O)c3ccccc3)o2)cc1` was tested, and the Potency was inconclusive: 12.6 µM [inhibitor, partial curve].
`O=C(CCl)Nc1ccc2c(c1)OCO2` was tested, and the Potency was “inactive”.
For `O=C(N/N=C/c1ccco1)c1cc(-c2cccc3ccccc23)n[nH]1`, the Potency was “inactive”.
In the case of `CCCOc1ccc(C2C(C(=O)OC)=CN(CCOC)C=C2C(=O)OC)cc1`, the Potency is reported as inconclusive: 28.2 µM [inhibitor, partial curve].
In the case of `Nc1ccc2nc3c(=O)[nH]c(=S)[nH]c3nc2c1`, the Potency is reported as inconclusive: 17.8 µM [inhibitor, partial curve].
For `C=CCNC(=O)C1CCN(c2nc(C)cc(-c3ccccc3)n2)CC1`, the Potency was inconclusive: 25.1 µM [inhibitor, partial curve].
With `O=S(=O)(c1ccc2c(c1)OCCO2)N1CCC(n2cnc3cc(F)ccc32)CC1` the Potency was inconclusive: 8.91 µM [inhibitor, partial curve].
With `Cc1ccccc1N(C(=O)c1cccs1)c1nc2ccccc2s1` the Potency was inconclusive: 39.8 µM [inhibitor, single point].
In the case of `CCOc1c2ccc(C(=O)N[C@H](C)C3CCCCC3)cc2nn1CC`, the Potency is reported as inconclusive: 28.2 µM [inhibitor, partial curve].
`Cc1cc(C)nc(N2CCCC(CCC(=O)NCc3ccc(F)c(F)c3)C2)n1` (configuration not stated) was tested, and the Potency was inconclusive: 39.8 µM [inhibitor, single point].
For `C=CCc1cccc(CNc2nc3ccccc3n2CCN2CCOCC2)c1O`, the Potency was “inactive”.
In the case of `COc1ccc(S(=O)(=O)Cc2ccc(C(=O)N3CCC(C(N)=O)CC3)o2)cc1`, the Potency is reported as “inactive”.
`N#C/C(C(=O)NCc1ccco1)=C1/SC=C(c2ccccc2)N1c1ccccc1` was tested, and the Potency was inconclusive: 39.8 µM [inhibitor, single point].
In the case of `Cn1nnc2c(N3CCCCC3)nccc21`, the Potency is reported as inconclusive: 22.4 µM [inhibitor, partial curve].
With `CN(C)CCN(C(=O)c1ccc2c(c1)OCCO2)c1nc2ccc(Cl)cc2s1` the Potency was “inactive”.
`Cn1c(N)c(N=Nc2ccc(S(N)(=O)=O)cc2)c(=O)n(C)c1=O` was tested, and the Potency was “inactive”.
With `CCOC(=O)c1cc(C(C)=O)c(=O)n(C)c1N` the Potency was inconclusive: 25.1 µM [inhibitor, partial curve].
`CCc1cc(C(N)=O)c(NC(=O)c2ccc(OC)cc2)s1` was tested, and the Potency was inconclusive: 35.5 µM [inhibitor, single point].
`C=CCn1c(-c2cccnc2Cl)nc2cc(Cl)c(Cl)cc21` was tested, and the Potency was inconclusive: 35.5 µM [inhibitor, single point].
For `C=CCNC(=S)NNc1nc2c(c(=O)[nH]1)C1(CCCC1)Cc1ccccc1-2`, the Potency was inconclusive: 25.1 µM [inhibitor, single point].
`O=C(N/N=C/c1ccc(O)cc1)c1[nH]c2ccc(Br)cc2c1-c1ccccc1` was tested, and the Potency was inconclusive: 28.2 µM [inhibitor, single point].
In the case of `CCOC(=O)CSc1nc2ccccc2n1C(=O)OCC`, the Potency is reported as “inactive”.
With `CCCCC(=O)NNC(=S)NC(=O)C(c1ccccc1)c1ccccc1` the Potency was inconclusive: 39.8 µM [inhibitor, single point].
For `CCCn1c(-c2ccccc2)nc2c(=O)n(C)c(=O)[nH]c21`, the Potency was inconclusive: 14.1 µM [inhibitor, partial curve].
`O=C(Oc1ccnc2cc(Cl)ccc12)N1CCCCCC1` was tested, and the Potency was “inactive”.
With `O=C1CC(C(=O)Nc2cccc3ccccc23)C2(CCCC2)O1` (configuration not stated) the Potency was inconclusive: 39.8 µM [inhibitor, single point].
With `CCc1cc(-c2n[nH]c(C)c2-c2nc3ccccc3n2C)c(O)c(CN2CCN(C)CC2)c1O` the Potency was inconclusive: 28.2 µM [inhibitor, single point].
`O=C1NC(c2ccccc2OC(F)F)Oc2ccccc21` (configuration not stated) was tested, and the Potency was inconclusive: 35.5 µM [inhibitor, single point].
For `CCN(c1ccc(NC(=O)COC(=O)c2cc3ccccc3oc2=O)cc1)C(C)C`, the Potency was inconclusive: 39.8 µM [inhibitor, single point].
`COc1ccc(/C=N/NC(=O)c2ccc(CSc3nc(C)cc(C)n3)cc2)c(OC)c1OC` was tested, and the Potency was inconclusive: 35.5 µM [inhibitor, single point].
In the case of `COC(=O)/C=C/CSC1=N/C(=C/c2ccc(-n3cncn3)cc2)C(=O)N1`, the Potency is reported as inconclusive: 3.55 µM [inhibitor, full curve].
For `COc1ccc(C(=O)n2cnc(N)n2)cc1`, the Potency was “inactive”.
In the case of `Clc1ccc(Nc2ncnc3c2cnn3-c2ccccc2)cc1`, the Potency is reported as inconclusive: 39.8 µM [inhibitor, single point].
For `CCN(CC)S(=O)(=O)c1ccc(NS(=O)(=O)c2ccc(F)cc2)cc1`, the Potency was “inactive”.
`CCOc1cccc(-c2nn(-c3ccccc3)cc2/C=C(/C#N)C(=O)NCCCn2ccnc2)c1` was tested, and the Potency was inconclusive: 39.8 µM [inhibitor, single point].
In the case of `O=C(Nc1ccccc1N1CCOCC1)c1cc(-c2ccco2)nc2ccccc12`, the Potency is reported as inconclusive: 35.5 µM [inhibitor, single point].
In the case of `OC1(c2ccc(Cl)cc2)CN(c2ccccc2)C2=[N+]1CCS2` (configuration not stated), the Potency is reported as inconclusive: 22.4 µM [inhibitor, single point].
In the case of `Cc1ccc(-n2c(C)nc3oc4ccccc4c(=O)c3c2=O)cc1`, the Potency is reported as “inactive”.
In the case of `COc1ccc(-c2cc(C(=O)Nc3cccc(S(=O)(=O)NCc4ccco4)c3)c3ccccc3n2)cc1OC`, the Potency is reported as inconclusive: 3.16 µM [inhibitor, full curve].
`COC(=O)c1cc(C#N)c(N(C)Cc2ccccc2)nc1C` was tested, and the Potency was inconclusive: 35.5 µM [inhibitor, single point].
For `NS(=O)(=O)c1cccc(NC(=O)c2cccnc2Oc2ccccc2)c1`, the Potency was “inactive”.
`N#Cc1c2ccccc2nc2ccccc12` was tested, and the Potency was inconclusive: 39.8 µM [inhibitor, single point].
`CCCN1CN(Cc2ccccc2)CC2=C1CC(C)(C)CC2=O` was tested, and the Potency was inconclusive: 39.8 µM [inhibitor, single point].
For `COc1ccccc1NC(=O)COC(=O)C1CC1`, the Potency was “inactive”.
`O=C(NC(=S)Nc1nc2c(s1)CCCC2)c1ccc(C(=O)c2ccccc2)cc1` was tested, and the Potency was “inactive”.
In the case of `CCOP(=O)(OCC)/C(=N/OC(=O)c1ccc(OC)cc1)C(N)=O`, the Potency is reported as “inactive”.
For `O=C(O)/C=C/C(=O)Nc1cccnc1`, the Potency was inconclusive: 39.8 µM [inhibitor, single point].
`CCCc1cc(=O)oc2c(CN3CCOCC3)c(O)ccc12` was tested, and the Potency was inconclusive: 3.55 µM [inhibitor, full curve].
`CCN1CCCC1Cn1cnc2c([nH]c3ccc(Cl)cc32)c1=O` (configuration not stated) was tested, and the Potency was inconclusive: 28.2 µM [inhibitor, single point].
In the case of `CC1=CCC2COC(c3ccc[n+](Cc4ccccc4)c3)C1C2` (configuration not stated), the Potency is reported as inconclusive: 28.2 µM [inhibitor, single point].
`O=C(c1cnn2c(C(F)(F)F)cc(-c3cccs3)nc12)N1CCOCC1` was tested, and the Potency was inconclusive: 14.1 µM [inhibitor, partial curve].
`Cc1ccc(C(=O)Nc2onc(C)c2C#N)cc1` was tested, and the Potency was “inactive”.
In the case of `CCCCC(=O)Nc1ccc(C(=O)N2CCCC(C(=O)OCC)C2)cc1` (configuration not stated), the Potency is reported as “inactive”.
In the case of `COc1ccccc1C1CN(c2ccccc2)N=C1c1cccs1` (configuration not stated), the Potency is reported as inconclusive: 7.94 µM [inhibitor, partial curve].
For `Cc1[nH]c(=S)c(C#N)c(C)c1CCC#N`, the Potency was “inactive”.
For `CCN(CC)C(=O)C1CCCN(c2ccccc2[N+](=O)[O-])C1` (configuration not stated), the Potency was “inactive”.
`COc1ccc(/C=C/C(=O)NNc2cc(=O)n(C)c(=O)n2C)cc1OC` was tested, and the Potency was inconclusive: 39.8 µM [inhibitor, single point].
For `COC(=O)C1=C(C)NC(C)=C(C(=O)OC)C1C(=O)OCC(=O)N1c2ccccc2CC1C` (configuration not stated), the Potency was inconclusive: 39.8 µM [inhibitor, single point].
In the case of `Cc1nc(C)c(-c2csc(NCCc3ccccc3)n2)s1`, the Potency is reported as inconclusive: 35.5 µM [inhibitor, single point].
For `CN(C)CCCN(C(=O)c1ccco1)c1nc2ccc(Cl)cc2s1`, the Potency was “inactive”.
For `C=CCc1ccc(OCCCOc2ccc(C)c(C)c2)c(OC)c1`, the Potency was “inactive”.
For `CC(C)OC(=O)CCc1nc2ccccc2[nH]c1=O`, the Potency was inconclusive: 31.6 µM [inhibitor, partial curve].
With `Clc1ccc(-c2nc(/C=N/N3CCOCC3)c3ccccn23)cc1` the Potency was inconclusive: 12.6 µM [inhibitor, partial curve].
